According to PubChem BioAssay AID1030 (National Center for Advancing Translational Sciences (NCATS), 2008):
The campaign covered roughly 220,000 compounds. About 16,000 (7.3%) were called active. Inconclusive means that the source gave no clear call. Such entries were picked first, then a sample of the others. The call rests on the fitted dose curve; in most records, active means well fitted inhibition curve with a large enough effect (not every such curve was filed as active); inconclusive means small, poorly fitted or top-dose-only effect, or another doubt; inactive means no such curve, though single readings can be large or run the other way. A potency beside an inconclusive call is a rough fit, not a confirmed value.

Target: Aldehyde dehydrogenase 1A1 (Homo sapiens) (UniProt P00352)
Chain of UniProt P00352 (P00352 whole entry, looked up): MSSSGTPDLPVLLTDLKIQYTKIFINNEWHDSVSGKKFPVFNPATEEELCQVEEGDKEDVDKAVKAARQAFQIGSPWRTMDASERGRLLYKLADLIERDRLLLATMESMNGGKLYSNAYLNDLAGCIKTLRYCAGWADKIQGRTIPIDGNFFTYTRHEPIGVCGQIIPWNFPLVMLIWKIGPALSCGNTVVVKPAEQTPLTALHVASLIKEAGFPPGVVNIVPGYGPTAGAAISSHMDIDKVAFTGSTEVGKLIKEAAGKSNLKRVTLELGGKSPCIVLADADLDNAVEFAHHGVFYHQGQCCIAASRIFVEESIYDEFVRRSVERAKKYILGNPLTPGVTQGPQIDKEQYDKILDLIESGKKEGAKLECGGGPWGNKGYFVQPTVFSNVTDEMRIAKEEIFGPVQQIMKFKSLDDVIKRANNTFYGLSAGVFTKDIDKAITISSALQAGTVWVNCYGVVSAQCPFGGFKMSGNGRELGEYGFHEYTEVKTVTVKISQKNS
Experiment: qHTS Assay for Inhibitors of Aldehyde Dehydrogenase 1 (ALDH1A1);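 on activity, negative = inhibition: plate controls were no enzyme wells and a reference inhibitor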
Details: Purified ALDH1A1, NADH fluorescence, propionaldehyde substrate; series mostly up to 75.3 µM; activity, negative = inhibition: at the top concentration
Potency means the concentration at half of the fitted maximal effect; tags describe the fitted curve by direction and shape.

Potency, inconclusive:
O=C(Cc1ccc2c(c1)OCCO2)c1c(O)cc(O)cc1O 39.8 µM [inhibitor, single point], Cc1cccc(C2=NN(c3ccccc3)[C@H](CO)[C@H]2C)c1 31.6 µM [inhibitor, partial curve], COc1cccc2c(C)c(C(=O)O)[nH]c12 39.8 µM [inhibitor, single point], COc1ccc(-c2oc3ncnc(NCCN4CCOCC4)c3c2-c2ccc(OC)cc2)cc1 20 µM [inhibitor, partial curve], O=C(CN(Cc1ccc(F)cc1)C(=O)c1ccco1)NCc1ccc(F)cc1 28.2 µM [inhibitor, single point], O=C(NNC(=O)c1ccncc1)Nc1ccc([N+](=O)[O-])cc1 39.8 µM [inhibitor, single point], Cc1ccc(CSCCNS(=O)(=O)c2ccccc2)cc1 39.8 µM [inhibitor, single point], COc1ccc2cc(/C=N/NC(=O)CN(c3ccccc3C)S(=O)(=O)c3ccccc3)c(Cl)nc2c1 31.6 µM [inhibitor, partial curve], COc1ccc(C(OC(=O)c2cccs2)C(=O)NCC2CCCO2)cc1 (centres undefined) 39.8 µM [inhibitor, single point], Cc1ccc(C(=O)Nc2c(C(=O)NCc3ccco3)cnn2-c2ccccc2)cc1 39.8 µM [inhibitor, single point], CC(=O)Nc1c(-c2ccc(F)cc2)nc2ccccn12 37.7 µM [inhibitor, single point], COc1ccc(-c2csc(NC(=O)c3ccc(N4C(=O)CCC4=O)cc3)n2)cc1 39.8 µM [inhibitor, single point], CCCCCCn1c(CN2CCN(Cc3ccccc3)CC2)nc2c1c(=O)n(C)c(=O)n2C 39.8 µM [inhibitor, single point], O=C(CN1C(=O)C2C3C=CC(C3)C2C1=O)NCCc1ccccc1 (centres undefined) 20 µM [inhibitor, partial curve], CCOc1ccc(NC(=O)CSc2nnc(Cn3c(=O)sc4ccccc43)n2C)cc1 39.8 µM [inhibitor, single point], COc1cccc(CN(C)CC(=O)Nc2cccc3ccccc23)c1 39.8 µM [inhibitor, single point], COc1c(OC(C)=O)ccc(/C=C/c2ccc3cccc(OC)c3n2)c1[N+](=O)[O-] 44.7 µM [inhibitor, single point], COc1ccc2c(C(=O)CN(C)C3CCCCC3)c[nH]c2c1 44.7 µM [inhibitor, single point], COc1ccc2nc3ccccc3nc2c1 39.8 µM [inhibitor, single point], COc1ccccc1Nc1nc(N)nc(CN2CCN(c3ccccc3F)CC2)n1 35.5 µM [inhibitor, single point], COc1cc2ncnc(NCc3ccccc3Cl)c2cc1OC 39.8 µM [inhibitor, single point], CCCC(=O)Oc1ccc2c(C)cc(=O)oc2c1 31.6 µM [inhibitor, single point], C/C(Cl)=C\Cn1c(NCCc2ccccc2)nc2c1c(=O)n(C)c(=O)n2C 39.8 µM [inhibitor, single point], COC(=O)C1=C(NC(=O)CCCCl)CCS1 39.8 µM [inhibitor, single point]

Potency, active:
NS(=O)(=O)c1ccc(NC(=O)COC(=O)c2cnc(Cl)c(Cl)c2)cc1 20 µM, S=C(NCc1ccccc1)N1CCn2cccc2C1c1cccnc1 (centres undefined) 3.55 µM, CCn1c(Cc2ccccc2)nnc1SCC(=O)Nc1ccccc1N1CCOCC1 8.91 µM, Cc1ccc(S(=O)(=O)N/N=C/c2ccc(OS(=O)(=O)c3ccc(C)c([N+](=O)[O-])c3)cc2)cc1 5.01 µM, Cc1cccc(OCCOc2ccccc2C=C(C#N)C#N)c1 7.08 µM, CCN(CC)S(=O)(=O)c1cc(NC(=O)COC(=O)Cn2cnc3ccccc32)ccc1C 20 µM, Cc1ccc(N(CC(=O)Nc2cccc(C)c2)S(=O)(=O)c2cccc3nonc23)cc1 7.08 µM, CN(c1ccccc1)c1ccc(/C=C(\CCC(=O)O)c2nc3ccccc3s2)cc1[N+](=O)[O-] 12.6 µM

activity, negative = inhibition, inactive:
CC(NC(=O)c1cccc(F)c1)C(c1cccs1)N1CCN(C)CC1 (centres undefined) 2.67%, CCOC(=O)C1=C(CC)OC(N)=C(C#N)C1c1ccc(OC)c(OC)c1OC (centres undefined) 9.02%, Cc1ccccc1Nc1ncnc(N)n1 13.4%, CC(=O)Nc1ccccc1OCC(=O)NCCc1ccc(Cl)cc1Cl 6.27%, COc1ccc(CCN(C)Cc2nc(Cc3ccc(OC)c(OC)c3)no2)cc1OC -0.675%, CC(=O)c1cn(Cc2ccccc2)c(=O)[nH]c1=O 10.1%, Cc1nnc(SCC(=O)NNC(=O)C(C)C)[nH]c1=O 6.86%, CCOC(=O)C(C)(C)C(=O)C(C)(C)C(O)c1ccccn1 (centres undefined) -4.25%, NS(=O)(=O)c1ccc(NC(=O)COC(=O)COc2ccc(Br)cc2)cc1 17.9%, CCCCC(=O)Nc1cccc(C(=O)Nc2ccccc2C(=O)O)c1 -1.29%, Cc1ccccc1C(=O)NNC(=O)CSc1nnc(C)n1-c1ccccc1 14.6%, CCn1c(SCC(=O)c2ccc(OC)cc2)nnc1C1CC1 -4.4%, Cc1nnn(-c2nonc2N)c1C(=O)N/N=C/c1ccccc1O 2.78%, FC(F)(F)c1cnc(Nc2ccc(N3CCOCC3)cc2)c(Cl)c1 -1.34%, CC(=O)c1sc(NC(=O)C2COc3ccccc3O2)nc1C (centres undefined) -10.1%, CCS(=O)(=O)N1CCN(c2cc3c(cc2[N+](=O)[O-])n(C)c(=O)n3C)CC1 -7.13%, CC1CCCC(NC(=O)COC(=O)c2ccccc2Sc2ccccc2C#N)C1C (centres undefined) 13.7%
